Experimental data published in paper PMC7819943, “Rice protein-binding microarrays: a tool to detect cis-acting elements near promoter regions in rice”.
The list shows a part of the results.

What follows are sequences tested against T1, OsWOX13 (Oryza sativa, UniProt Q5QMM3 1-267) (assay: protein-binding microarray (RPBM); PBS, 2% BSA, 51.3 ng/ul salmon testes DNA, 50 uM zinc acetate, 200 nM TF, 25 C, 1 h; high values mean tight binding). Conditions: protein: recombinant; tags: N-terminal polyhistidine and DsRed monomer fusion (pET32a); label: CyDye5-dUTP incorporated in the synthesized complementary strand; 3' TTTTT single-stranded linker to array surface; dsDNA, one strand shown.
T1 sequence: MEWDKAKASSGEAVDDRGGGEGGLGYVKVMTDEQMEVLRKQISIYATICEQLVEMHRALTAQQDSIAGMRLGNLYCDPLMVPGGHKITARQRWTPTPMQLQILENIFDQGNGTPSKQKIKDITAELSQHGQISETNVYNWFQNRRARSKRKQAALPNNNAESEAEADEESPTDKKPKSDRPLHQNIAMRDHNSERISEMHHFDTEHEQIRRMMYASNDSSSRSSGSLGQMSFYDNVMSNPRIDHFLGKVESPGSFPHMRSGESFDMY
Procedure, shortened: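 An Axon 4000B scanner gave the binding signal as per-feature fluorescence intensity in arbitrary units. This followed washing of a custom Agilent array that had been incubated for 1 h at 25 °C with 200 nM protein in PBS, 2% BSA, salmon testes DNA and 50 µM zinc acetate. The proteins were transcription factors fused at the N-terminus to polyhistidine and DsRed, expressed in E. coli BL21-CodonPlus and purified on Ni–NTA.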

Sequence | binding signal
TTTCGCAATTATATTGATGCAGAAATCAGCAGCTCACAATCGGAGTCACCTAGTGCAG | 5830 fluorescence intensity (a.u.)
CAATCAATCAACAAGTCAGTGTGATTTATAGTCATAAGATCGGAGTCACCTAGTGCAG | 36000 fluorescence intensity (a.u.)
GTATAGATTGTTTTGATGTAAAATTCCTGATTTGGGCCTTCGGAGTCACCTAGTGCAG | 14200 fluorescence intensity (a.u.)
CCTTTTGTAATCATAAACGGGCCGTGACGAGTTCCAGGTACGGAGTCACCTAGTGCAG | 5810 fluorescence intensity (a.u.)
GGAAGATTAAACAACGATTGGTTGTCTCATGTCTAGCCTACGGAGTCACCTAGTGCAG | 18500 fluorescence intensity (a.u.)
CAGAAATCATGTATATTTTAATTTTGTTTTCTAGATTTCGCGGAGTCACCTAGTGCAG | 12000 fluorescence intensity (a.u.)
AAAATCATGGTGTTAATTCTCTATTTTGATTCAGTATTGGCGGAGTCACCTAGTGCAG | 3560 fluorescence intensity (a.u.)
AATAAATATTGGGTCAATCAGACCAGAACAATCTAAAGTCCGGAGTCACCTAGTGCAG | 7540 fluorescence intensity (a.u.)
TCTCCTTACCTGTTAACTTTCTCCCTGACAGCTATTGCAACGGAGTCACCTAGTGCAG | 4120 fluorescence intensity (a.u.)
AAAATGTCAATTAGATGCGTAATTAAACAGAAACTTCGGACGGAGTCACCTAGTGCAG | 42000 fluorescence intensity (a.u.)
CCAAACATAGCCTAATCAATTAGCATAGCTCTGTTTCTAACGGAGTCACCTAGTGCAG | 12000 fluorescence intensity (a.u.)
TTTCTAATTTCTTTCAGCATCGTATTAATGTCGATATTAACGGAGTCACCTAGTGCAG | 3250 fluorescence intensity (a.u.)
ATAGATGAAGAATAAATATGATTGGTAGAGAAGAGAGATGCGGAGTCACCTAGTGCAG | 25600 fluorescence intensity (a.u.)
CAGAAATTAGTCTTTTAAGGACAGAGGAAAATATGTTCATCGGAGTCACCTAGTGCAG | 3710 fluorescence intensity (a.u.)
CATTTACAAATTAAAACAAGCTGACATCAAAGTGACAAACCGGAGTCACCTAGTGCAG | 3300 fluorescence intensity (a.u.)
ATATATATATATATATATATATAGAGAGAGAGAGAGAGACCGGAGTCACCTAGTGCAG | 8870 fluorescence intensity (a.u.)
TTCCAGTTATTTCTAAATTGTATTCCTATTTGGACTCTCCCGGAGTCACCTAGTGCAG | 3910 fluorescence intensity (a.u.)
TGTTACTGATTGTAATGCAGTTATTTGTGACATATGTGAACGGAGTCACCTAGTGCAG | 27200 fluorescence intensity (a.u.)
TCGCTTATTAATTAGAGTAATAATTGTACTCTATTATCAACGGAGTCACCTAGTGCAG | 17800 fluorescence intensity (a.u.)
CAAAGTTTGATTAATGTAAAACCTGAAAGTCTGCAAAGTTCGGAGTCACCTAGTGCAG | 14600 fluorescence intensity (a.u.)
GTCATTTTAATTGCAAATGCTTTTATATGTTGTTTCTTTCCGGAGTCACCTAGTGCAG | 6630 fluorescence intensity (a.u.)

Sequence | binding signal
GCGATTTTAATGGGATTAATTTTGACCTCGATCGGCATATCGGAGTCACCTAGTGCAG | 12400 fluorescence intensity (a.u.)
GCTGCCAATTTGCCAAATCATATTCTCACGCCCTACCTAACGGAGTCACCTAGTGCAG | 10400 fluorescence intensity (a.u.)
CTAAATTTTGCCGAGATCGAGCAGTTCAGTGTGTCTGTCACGGAGTCACCTAGTGCAG | 7610 fluorescence intensity (a.u.)
CATGTTTTATTAGATAGATTGTGGGTGCTCTTAGTGACAGCGGAGTCACCTAGTGCAG | 5560 fluorescence intensity (a.u.)
ACATGATTTTCATAAAAGAGATGAGCAGATAATCACTAGTCGGAGTCACCTAGTGCAG | 5960 fluorescence intensity (a.u.)
CAACTAGTTTGATTAGGTCAACGTGCCATATCAACGAAATCGGAGTCACCTAGTGCAG | 3330 fluorescence intensity (a.u.)
CGCCTAATCATTCTTTTAGTGGTAAGCGACATACCAGTTGCGGAGTCACCTAGTGCAG | 3260 fluorescence intensity (a.u.)
CGCGGGGAATCAACTAGTTGATTTAAATAATACAAACCTACGGAGTCACCTAGTGCAG | 6290 fluorescence intensity (a.u.)
CCTGAATGAATATCACAAATACCATATCCATCGGTGAAAGCGGAGTCACCTAGTGCAG | 3780 fluorescence intensity (a.u.)
TGGAGTAATTACCATCTCCTGTGTCTATGTGAAGCAACTTCGGAGTCACCTAGTGCAG | 9240 fluorescence intensity (a.u.)
TAGATAGATAGAAGATAATAGAAGATAGATAATAGAAGATCGGAGTCACCTAGTGCAG | 10200 fluorescence intensity (a.u.)
GAAAATTAGTAGAGAACTAATTAGGGATAAAGTCATTATTCGGAGTCACCTAGTGCAG | 13000 fluorescence intensity (a.u.)
CCATGCACTAAATTAAATGAGTAGGCATCGGCTCTGCTGACGGAGTCACCTAGTGCAG | 3190 fluorescence intensity (a.u.)
AGTTTAAAGATTGATTTAGATTTAGATTCCACGTAATCGCCGGAGTCACCTAGTGCAG | 19700 fluorescence intensity (a.u.)
AACGTGACTGTCCCATTATCTTGTGTCCACTTTATTTATACGGAGTCACCTAGTGCAG | 4140 fluorescence intensity (a.u.)
GCATGAAGACATCAATTAATTAATTGCATGGTTACATGCACGGAGTCACCTAGTGCAG | 37200 fluorescence intensity (a.u.)
TGTCCGTCCCTGTCTGATTCCGCCGCGCCTGACCAGACTCCGGAGTCACCTAGTGCAG | 3400 fluorescence intensity (a.u.)
TTTGATGGATCGGTGTGTACTCATGGTTGTGGTATCTGCCCGGAGTCACCTAGTGCAG | 14400 fluorescence intensity (a.u.)
AAAACAAATTTATAGTGAACAGAAACTCATCGCCATCAAACGGAGTCACCTAGTGCAG | 5090 fluorescence intensity (a.u.)
GTGATTTGTGCCGGGATTAAGGCCCATCAAAACAAGGCCTCGGAGTCACCTAGTGCAG | 4970 fluorescence intensity (a.u.)
GGTAATCAATCTCCCTACGGCCCTGAACTGCAGGTGGTTGCGGAGTCACCTAGTGCAG | 8450 fluorescence intensity (a.u.)
